Values joined by “and” are separate entries in the source; they are usually repeats but may differ in a detail not shown here. Equal entries are not always repeated. Among all 400,000 compounds or so, about 2,200 (0.55%) were called active. Roughly 1% stayed inconclusive and do not appear here. The call rests on the fitted dose curve; in most records, active means well fitted inhibition curve with a large enough effect; inconclusive means small, poorly fitted or top-dose-only effect, or another doubt; inactive means no such curve, though single readings can be large or run the other way. This is a selection; strong and weak results do not stand in their true shares. Some compounds were tested as several samples or in several runs, with calls that do not always agree. Non-standard residues stand in square brackets, D forms with d. Residues, ends and D or L forms follow the SMILES beside them. Phe(4-NH2) = Nc1ccc(C[C@H](N)C(=O)O)cc1
Target: DNA polymerase kappa (Homo sapiens) (UniProt Q9UBT6)
UniProt Q9UBT6, sequence (Q9UBT6 whole entry, looked up): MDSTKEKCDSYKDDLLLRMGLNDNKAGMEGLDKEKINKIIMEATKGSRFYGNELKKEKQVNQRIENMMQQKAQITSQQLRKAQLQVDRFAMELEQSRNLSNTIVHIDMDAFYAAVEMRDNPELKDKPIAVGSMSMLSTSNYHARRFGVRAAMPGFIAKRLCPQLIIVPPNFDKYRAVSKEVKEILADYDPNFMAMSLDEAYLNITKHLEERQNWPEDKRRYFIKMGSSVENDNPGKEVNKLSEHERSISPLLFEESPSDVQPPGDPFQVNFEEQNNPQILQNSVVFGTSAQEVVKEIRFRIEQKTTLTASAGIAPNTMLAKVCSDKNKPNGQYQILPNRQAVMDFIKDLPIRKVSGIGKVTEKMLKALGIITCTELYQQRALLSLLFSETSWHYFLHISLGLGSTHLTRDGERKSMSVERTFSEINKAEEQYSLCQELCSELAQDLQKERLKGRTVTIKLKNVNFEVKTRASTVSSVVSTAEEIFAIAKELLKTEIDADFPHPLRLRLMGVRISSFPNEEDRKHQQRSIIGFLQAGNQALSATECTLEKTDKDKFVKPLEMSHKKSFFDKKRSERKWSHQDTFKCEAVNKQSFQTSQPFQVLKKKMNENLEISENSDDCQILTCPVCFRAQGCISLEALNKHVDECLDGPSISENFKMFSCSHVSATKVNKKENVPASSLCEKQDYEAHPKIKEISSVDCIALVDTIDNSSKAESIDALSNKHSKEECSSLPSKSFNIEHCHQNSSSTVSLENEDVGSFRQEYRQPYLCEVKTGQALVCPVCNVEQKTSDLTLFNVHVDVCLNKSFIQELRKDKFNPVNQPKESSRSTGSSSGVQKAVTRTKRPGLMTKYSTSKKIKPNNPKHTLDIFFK
Assay: qHTS for Inhibitors of Polymerase Kappa
Details: purified Pol kappa, fluorescent DNA synthesis assay, 10 min; series mostly up to 107 µM; activity, negative = inhibition: at the top concentration
Summary of the method: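 Here, compound and 10 nM enzyme are combined for 15 min at room temperature; adding 50 nM substrate (final) starts DNA synthesis, tracked by fluorescence at 0 and 10 min against buffer-only wells.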
On the % scale 0 is the no-effect control and ±100 the full control effect; potency means the concentration at half of the fitted maximal effect.

Row | Compound | activity, negative = inhibition | Potency
1 | O=C(O)c1ccc(-c2c3nc(c(-c4ccc(C(=O)O)cc4)c4ccc([n-]4)c(-c4ccc(C(=O)O)cc4)c4nc(c(-c5ccc(C(=O)O)cc5)c5ccc2[n-]5)C=C4)C=C3)cc1.[Mn+3] | inactive: 0.818% [at 60.1 µM] | 
2 | O=c1cc(-c2ccc(O)cc2)oc2cc(O)cc(O)c12 |  | inactive
3 | Cc1ccccc1N=C(N)Nc1ccccc1C | inactive: -17.1% [at 19.4 µM] and inactive: -5.32% [at 19.4 µM] | 
4 | CCOC(=O)C1OC1C(=O)NC(CC(C)C)C(=O)NCCC(C)C (stereo not given) | inactive: 2.58% [at 19.4 µM] | 
5 | CC(C)CCNC(=O)c1cnc2sc(N3CCCCCC3)nn2c1=O | inactive: 32.4% | 
6 | CN(C)CCC[C@]1(c2ccc(F)cc2)OCc2cc(C#N)ccc21 | inactive: -2.99% | 
7 | NC(=O)c1cc(S(=O)(=O)NCc2cccc(Br)c2)cs1 |  | inactive
8 | COc1cc2c(C#N)c(N3CCCC3)nc(N)c2c(N)n1 | inactive: -23% | 
9 | CC1(C)OC(=O)C(=Cc2ccc(-c3ccc(Cl)c(C(=O)O)c3)o2)C(=O)O1 |  | active: 39.8 µM
10 | CC(C)C[C@H](NC(=O)CNC(=O)[C@H](CCC(N)=O)NC(=O)[C@H](CC(C)C)NC(=O)[C@H](CC(C)C)NC(=O)[C@H](CCCNC(=N)N)NC(=O)[C@H](CCC(N)=O)NC(=O)[C@H](CC(C)C)NC(=O)[C@H](CCCNC(=N)N)NC(=O)[C@H](C)NC(=O)CNC(=O)[C@H](CCC(=O)O)NC(=O)[C@H](CCCNC(=N)N)NC(=O)[C@H](CC(C)C)NC(=O)[C@H](CCCNC(=N)N)NC(=O)[C@H](CO)NC(=O)[C@H](CC(C)C)NC(=O)[C@H](CCC(=O)O)NC(=O)[C@H](CO)NC(=O)[C@@H](NC(=O)[C@H](Cc1ccccc1)NC(=O)[C@@H](NC(=O)CNC(=O)[C@H](CC(=O)O)NC(=O)[C@H](CO)NC(=O)[C@@H](N)Cc1cnc[nH]1)[C@@H](C)O)[C@@H](C)O)C(=O)N[C@H](C(N)=O)C(C)C | inactive: 19.8% [at 60.1 µM] | 
11 | COc1cc2cc3c4cc(OC)c(OC)cc4cc[n+]3c(C)c2cc1OC | inactive: -13.5% [at 12 µM] | 
12 | Cc1ccc(S(=O)(=O)c2cc(Nc3ccccc3)ccc2O)cc1 |  | active: 39.8 µM
13 | CC[C@H](C)[C@H](NC(=O)[C@H](Cc1ccc(O)cc1)NC(=O)[C@@H](NC(=O)[C@H](CCCN=C(N)N)NC(=O)[C@@H](N)CC(=O)O)C(C)C)C(=O)N[C@@H](Cc1ccc(N)cc1)C(=O)N1CCC[C@H]1C(=O)N[C@@H](Cc1ccccc1)C(=O)O (H-DRVYI[Phe(4-NH2)]PF-OH) | inactive: 17.1% [at 60.1 µM] | 
14 | O=C(O)C1CC(CCCP(=O)(O)O)CCN1 (stereo not given) | inactive: 12.9% [at 60.1 µM] | 
15 | O=c1c(O)c(-c2ccc(O)c(O)c2)oc2c(OC[C@@H]3O[C@@H](O)[C@@H](O)[C@H](O)[C@H]3O)c(O)cc(O)c12 |  | active: 0.316 µM
